# According to PubChem BioAssay AID624417 (National Center for Advancing Translational Sciences (NCATS), 2012):
# Hit rate of the full screen: of about 410,000 compounds, about 6,400 (1.6%) were called active. Inconclusive results, whose numbers are uncertain, are shown with a selection of clear calls. Calls come from the whole dose curve; as a rule, active = well fitted inhibition curve with a large enough effect; inconclusive = small, poorly fitted or top-dose-only effect; inactive = no such curve, though single readings can be large or run the other way. No potency is given beside an inconclusive call; the fits are too rough.
# Molecular target: Glucagon-like peptide 1 receptor (Homo sapiens) (UniProt P43220)
# Sequence of UniProt P43220 (P43220 whole entry, looked up): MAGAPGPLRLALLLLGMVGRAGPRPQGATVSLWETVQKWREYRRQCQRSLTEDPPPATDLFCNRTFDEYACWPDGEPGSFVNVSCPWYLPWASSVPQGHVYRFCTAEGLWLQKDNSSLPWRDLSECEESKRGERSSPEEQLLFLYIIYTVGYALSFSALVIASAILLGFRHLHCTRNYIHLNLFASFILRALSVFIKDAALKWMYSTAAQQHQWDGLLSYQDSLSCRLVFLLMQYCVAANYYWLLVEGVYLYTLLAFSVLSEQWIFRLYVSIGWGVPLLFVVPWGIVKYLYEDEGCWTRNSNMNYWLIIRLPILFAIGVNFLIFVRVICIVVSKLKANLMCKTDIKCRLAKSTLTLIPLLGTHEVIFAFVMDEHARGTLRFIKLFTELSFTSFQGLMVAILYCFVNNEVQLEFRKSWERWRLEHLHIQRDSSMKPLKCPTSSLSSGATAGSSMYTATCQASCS
# Experiment: qHTS of GLP-1 Receptor Inverse Agonists (Inhibition Mode); note: nearly all actives have a fitted effect of over 55% in size
# Settings: HEK293 GLP-1R CRE-luciferase, luminescence, 24 h, GLP-1R form is constitutively active; series mostly up to 38.3 µM
# In short: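 HEK293 cells stably co-expressing constitutively active GLP-1R and a cAMP-responsive luciferase reporter were seeded in DMEM with 10% Nu serum, given compounds after 12 h, and incubated 24 h at 37 deg C. Luminescence was then read.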
# Potency is the fitted concentration of half-maximal effect; tags give direction and shape of the fitted curve.
row,Structure (SMILES),Potency
1,CN(C)S(=O)(=O)c1cc(NC(=O)COC(=O)Cc2cccc3ccccc23)ccc1Cl,"inconclusive [inhibitor, single point]"
2,Cc1ccc(S(=O)(=O)N2CCN=C2SC(C)c2ccccc2)cc1 (stereo unspecified),"inconclusive [inhibitor, partial curve, poor fit]"
3,Cc1cc(F)ccc1NCC(=O)Nc1ccccc1Br,"inconclusive [inhibitor, single point]"
4,Cc1c(C2CC(=O)N(c3ccccc3)C2=O)[nH]n(-c2ccccc2)c1=O (stereo unspecified),inactive
5,CCCCCn1c(=O)[nH]c2cc(C(=O)NCc3ccccc3)ccc2c1=O,inactive
6,Oc1ccc(NCc2ccc(OCc3ccccc3)cc2)cc1,inactive
7,CCOC(=O)c1ccc(NC(=O)Cn2nnc3ccccc32)cc1,"inconclusive [inhibitor, partial curve, poor fit]"
8,Cc1[nH]c2ccc(-c3n[nH]c(=S)n3-c3ccc(Br)cc3)cc2c1C,"inconclusive [inhibitor, single point]"
9,CC(C)CC(=O)Nc1ccccc1-c1nnn(CC(=O)N2CCc3ccccc3C2)n1,"inconclusive [inhibitor, partial curve, poor fit]"
10,CCOc1ccc(CC(=O)N2CCc3cc(OC)c(OC)cc3C2COc2ccc3c(C)cc(=O)oc3c2)cc1 (stereo unspecified),inactive
11,COc1ccc(NC(=O)C2CCN(S(=O)(=O)c3cccnc3)CC2)cc1Cl,"inconclusive [inhibitor, full curve, poor fit]"
12,CCOc1ccc(NS(=O)(=O)c2ccc(C(=O)NCC(C)(C)N3CCOCC3)cc2)cc1,"inconclusive [inhibitor, single point]"
13,CCCN(CCC)S(=O)(=O)c1ccc(C(=O)Nc2nnc(CSC)o2)cc1,inactive
14,O=C(NC(=S)N1CCc2ccccc21)c1ccccc1Br,"inconclusive [inhibitor, full curve, poor fit]"
15,CCOC(=O)Nc1ccc2nc(Sc3ccc(Cl)cc3)sc2c1,"inconclusive [inhibitor, partial curve, poor fit]"
16,CCCCC(Sc1nc2cc3c(cc2c(=O)n1CCCC(=O)NCc1ccc2c(c1)OCO2)OCO3)C(=O)OCC (stereo unspecified),inactive
17,O=C(CSc1nccn1-c1ncc(C(F)(F)F)cc1Cl)c1ccc(Cl)cc1,inactive
18,CC1CCN(C(=O)CSc2nc3ccccc3nc2Cc2ccccc2)CC1,"inconclusive [inhibitor, single point]"
19,COC(=O)Nc1ccc(SCC(=O)c2ccc(Cl)cc2)cc1,"inconclusive [inhibitor, single point]"
20,CC(C)CC(=O)N/C(N)=N/c1nc2ccccc2s1,"inconclusive [inhibitor, single point]"
21,CCOC(=O)N1CCC(c2cc(=O)n3[nH]c(C)c(-c4ccc(F)cc4)c3n2)CC1,"inconclusive [inhibitor, single point]"

row,Structure (SMILES),Potency
1,CCOc1cc(C2NN=C(c3ccccc3)S2)ccc1OCc1ccccc1Cl (stereo unspecified),"inconclusive [inhibitor, single point]"
2,O=C(NN=C1CCCC1)c1n[nH]c2c1CCC2,"inconclusive [inhibitor, single point]"
3,COc1ccc2oc(C(=O)N(C)Cc3ccc(OC(F)F)cc3)c(C)c2c1,"inconclusive [inhibitor, single point]"
4,Cc1c(CN2CCN(c3cccc(C(F)(F)F)c3)CC2)c(=O)n(-c2ccccc2)n1C,"inconclusive [inhibitor, single point]"
5,CC(C)c1ccc(NC(=O)Cn2cc(S(=O)(=O)Cc3ccccc3Cl)c3ccccc32)cc1,"inconclusive [inhibitor, partial curve, poor fit]"
6,COc1ccccc1CNC(=O)c1ccc2c(c1)N(Cc1c(F)cccc1Cl)C(=O)CS2,"inconclusive [inhibitor, single point]"
7,Cc1cc(C)cc(NC(=O)c2cc(S(=O)(=O)N3CCc4ccccc43)cn2C)c1,inactive
8,COC(=O)c1sc(C(F)(F)F)c(-c2ccccc2)c1S(=O)(=O)N1CCOCC1,"inconclusive [inhibitor, single point]"
9,CC(C)C(=O)Nc1ccc2nc(SCC(=O)N3CCc4ccccc43)sc2c1,"inconclusive [inhibitor, partial curve]"
10,c1ccc2c(c1)CCCC2C1=NCCN1 (stereo unspecified),"inconclusive [inhibitor, full curve, poor fit]"
11,COc1ccc(C2=NN(C(=O)CN3CCCC3)C(c3ccc(OC)cc3)C2)cc1 (stereo unspecified),"inconclusive [inhibitor, single point]"
12,Cc1ccccc1CSCc1nc(N)nc(Nc2ccccc2C)n1,"inconclusive [inhibitor, single point]"
13,COc1ccccc1CC(=O)Nc1ccc2nc(Nc3cccc(Cl)c3)cc(C)c2c1,"inconclusive [inhibitor, partial curve, poor fit]"
14,Cc1onc(-c2ccccc2)c1C(=O)Nc1nc2c(s1)CCCC2,"inconclusive [inhibitor, partial curve, poor fit]"
15,CCC(=O)N1CCc2cc(S(=O)(=O)Nc3cc(C)ccc3OC)ccc21,inactive
16,COc1ccc(/C=N/N(Cc2ccccc2)c2ccccc2)cc1O,"inconclusive [inhibitor, partial curve, poor fit]"
17,CC(=O)c1ccc(Nc2c3c(nc4ccccc24)CCCC3)cc1,"inconclusive [inhibitor, partial curve, poor fit]"
18,Fc1ccc(CNC(=S)NCc2ccccc2)cc1,"inconclusive [inhibitor, single point]"
19,Cc1ccc(NC(=O)CN(C)C(=O)Cn2ncc(Cl)c(Cl)c2=O)cc1,"inconclusive [inhibitor, single point]"
20,COc1cc(/C=N\NC(=O)c2cccc(Cl)c2)ccc1Oc1ccc([N+](=O)[O-])cn1,"inconclusive [inhibitor, partial curve, poor fit]"
